# Measured values reported in paper PMC4336329 (PLoS ONE, 2015).
# The whole screen tested about 310,000 compounds, of which about 14,000 (4.5%) showed an effect of 50% or more. The effect is printed as a negative number. Some of the results follow.
# Target: human ether-à-go-go-related gene (hERG) potassium channel (human, UniProt Q12809)
# Assay: primary screen, population patch clamp on CHO cells stably expressing hERG
# 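Further: peak tail current of the secondary pulse compared with the same well before compound.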
# Sequence of human ether-à-go-go-related gene (hERG) potassium channel (Q12809 whole entry, looked up): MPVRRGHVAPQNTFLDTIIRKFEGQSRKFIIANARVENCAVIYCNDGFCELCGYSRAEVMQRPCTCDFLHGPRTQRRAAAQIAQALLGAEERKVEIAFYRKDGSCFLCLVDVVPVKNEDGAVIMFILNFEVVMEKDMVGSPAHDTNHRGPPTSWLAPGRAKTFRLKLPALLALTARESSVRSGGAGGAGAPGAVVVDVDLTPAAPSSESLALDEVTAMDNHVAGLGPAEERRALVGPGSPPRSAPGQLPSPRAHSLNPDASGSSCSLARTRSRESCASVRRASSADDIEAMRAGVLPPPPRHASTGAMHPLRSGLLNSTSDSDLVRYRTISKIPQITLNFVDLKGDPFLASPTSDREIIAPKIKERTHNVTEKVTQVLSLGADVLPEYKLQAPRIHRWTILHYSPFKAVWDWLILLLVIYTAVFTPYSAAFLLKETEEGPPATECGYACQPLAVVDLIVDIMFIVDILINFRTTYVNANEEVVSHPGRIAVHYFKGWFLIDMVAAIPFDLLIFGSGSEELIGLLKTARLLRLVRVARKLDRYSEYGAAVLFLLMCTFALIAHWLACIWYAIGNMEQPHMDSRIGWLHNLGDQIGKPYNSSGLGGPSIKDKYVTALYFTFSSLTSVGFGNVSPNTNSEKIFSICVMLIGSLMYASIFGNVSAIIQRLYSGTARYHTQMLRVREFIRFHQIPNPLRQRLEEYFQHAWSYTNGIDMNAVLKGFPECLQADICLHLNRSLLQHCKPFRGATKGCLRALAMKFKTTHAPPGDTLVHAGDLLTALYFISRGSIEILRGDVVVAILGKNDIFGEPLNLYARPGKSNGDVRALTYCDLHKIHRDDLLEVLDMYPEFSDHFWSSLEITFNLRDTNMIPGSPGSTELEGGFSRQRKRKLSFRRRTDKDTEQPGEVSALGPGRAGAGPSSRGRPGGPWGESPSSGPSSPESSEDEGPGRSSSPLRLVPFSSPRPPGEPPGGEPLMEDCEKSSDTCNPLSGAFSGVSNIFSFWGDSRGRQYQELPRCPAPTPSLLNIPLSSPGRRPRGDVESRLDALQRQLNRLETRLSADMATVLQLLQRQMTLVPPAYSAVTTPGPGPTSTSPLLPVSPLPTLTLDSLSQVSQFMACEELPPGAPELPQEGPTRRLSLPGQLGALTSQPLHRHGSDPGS
row,SMILES,"hERG current change (%, negative = inhibition) at 10uM [%]"
1,CC(C)N1CCN(Cc2ccc3c(c2)Cc2ccccc2-3)CC1CCO (stereo not shown),-52.4
2,CN1CCC(N(C)Cc2cccnc2)CC1,-5.19
3,CC(=O)N1CCC(C(=O)N2CCN(S(=O)(=O)c3ccc(F)cc3)CC2)CC1,-1.33
4,COc1ccc(-c2csc(NC(=O)COC(=O)Cc3ccccc3)n2)cc1OC,18.7
5,Cc1ccccc1N1C(=O)CC2(CCCC2)CC1=O,16.1
6,COC(=O)c1cc(C#N)c(OC(C)C)nc1C,-6.52
7,O=C1CC(N2CCN(Cc3ccc4c(c3)OCO4)CC2)C(=O)N1c1cccc2ccccc12 (stereo not shown),-4.77
8,COc1ccc(NS(=O)(=O)c2ccc3c(c2)[C@H]2C=CC[C@H]2[C@@H](c2ccc(C(=O)O)cc2)N3)cc1,13.2
9,Cc1ccc(NS(=O)(=O)c2ccc3[nH]c(=O)oc3c2)c(C)c1,6.1
10,Cc1cc(C)n(C(=O)CNc2ccc(C)c(C)c2)n1,10.1
11,O=C(N/N=C/c1ccc2c(c1)OCO2)C1COc2ccccc2O1 (stereo not shown),9.9
12,Cn1c(C(=O)Nc2ccc3c(c2)OCCO3)cc2c(=O)n(C)c3ccccc3c21,3.66
13,COc1ccc(N(C(C)C(=O)NCc2ccco2)S(C)(=O)=O)cc1 (stereo not shown),13.9
14,CC1(C)CC(=O)c2c(n(-c3cccc4ccccc34)ccc2=O)C1,15.1
15,COC(=O)C1=C(C)N(Cc2ccc(OC)c(OC)c2)C(=O)C1,10.7
16,CCOC(=O)C(C(C)=O)C(c1ccc(OC)cc1)C(C(C)=O)C(=O)OCC (stereo not shown),-4.44
17,COC(=O)c1sc(-c2ccccc2)cc1NC(=O)c1ccc(F)cc1,1.34
18,CCCCCNC(=O)c1cc(S(=O)(=O)N2CCCCC2)ccc1F,-11.7
19,CCOC(=O)/C(=N\Nc1ccccc1)c1csc(Nc2ccc(C)cc2)n1,9.16
20,Cc1ccc(C(=O)Nc2c(-c3cccs3)nc3cc(C)ccn23)cc1,11.4

row,SMILES,"hERG current change (%, negative = inhibition) at 10uM [%]"
1,COc1ccc2nc(-c3ccc(Cl)cc3)cc(C(=O)O)c2c1,16.4
2,COc1ccc2c(CC(=O)N[C@@H](Cc3c[nH]c4ccccc34)C(=O)O)cc(=O)oc2c1,48.7
3,CCCCOC(=O)c1cccc(NC(=O)CC)c1,-4.59
4,Cc1cc(/C=N/O)c(C)n1-c1ccc(Br)cc1,-34.2
5,C=CCN(CC(=O)O)S(=O)(=O)c1ccccc1C(F)(F)F,13.8
6,CCC(C)NC(=O)Cn1nc(C(F)(F)F)c2c1CCCC2 (stereo not shown),7.08
7,C1=C(CCNCC2CCCCC2)CCCC1.Cl,-13.3
8,Oc1c(Br)cc(/C=N/n2c(-c3ccccc3)n[nH]c2=S)cc1Br,17.1
9,O=[N+]([O-])c1ccc(NCCNc2ccc(Cl)nn2)cc1,-45.6
10,CCOC(=O)Cn1c(=O)oc2cc(S(=O)(=O)NCc3ccccn3)ccc21,-9.44
11,COc1ccc2[nH]c(=O)c(CN(C(=O)C3CCCO3)c3ccc(C)cc3)cc2c1 (stereo not shown),-21.2
12,O=C(NCCc1ccc(Cl)cc1)C1=CC=CN2CCS(=O)(=O)N=C12,-9.31
13,CN(C)Cc1cnc2ccc(Cl)cn12,-3.32
14,Nc1nnc(SCC(=O)Nc2ccc(S(=O)(=O)N3CCOCC3)cc2)s1,-9.26
15,Cc1ccc(-c2noc(C3CCCN(C(=O)c4cccc([N+](=O)[O-])c4)C3)n2)o1 (stereo not shown),-65
16,O=[N+]([O-])c1ccccc1S(=O)(=O)NCCC1=CCCCC1,-11.5
17,COc1cccc(C(=O)Nc2cccc(C(C)=O)c2)c1,10.3
18,Cc1cccc(NC(=O)Nc2cc(C)on2)c1,9.14
19,COc1ccc(-c2csc(NC(=O)c3cccc(N4C(=O)CCC4=O)c3)n2)cc1C,9.77
20,Cc1ccc(-c2cc(C(=O)NCCN3CCOCC3)no2)cc1,-14

row,SMILES,"hERG current change (%, negative = inhibition) at 10uM [%]"
1,CCCn1c(SCC(=O)Nc2nnc(CC)s2)nnc1-c1ccco1,9.22
2,Cl.O=C(CN1CCN(c2ccc(F)cc2)CC1)N1CCC(Cc2ccccc2)CC1,-30.3
3,COc1cccc(Oc2cn[nH]c2-c2ccc(OCC(=O)NN)cc2O)c1,4.88
4,COc1cccc(-c2nc(CSCC(=O)NCC3CCCO3)c(C)o2)c1 (stereo not shown),-1.22
5,COc1ccc(/C=C2\SC(=O)N(CC(=O)Nc3ccc(F)cc3)C2=O)cc1O,15.9
6,CC(C(=O)N1CCCCC1)N(C)CC(=O)Nc1ccc(Cl)cc1 (stereo not shown),1.48
7,CCOc1ccc(/C=N/NC(=O)CSc2n[nH]c(=O)[nH]c2=O)cc1OC,7.73
8,Cc1oc2c(C)c(O)ccc2c(=O)c1-c1cnn(-c2ccccc2)c1,9.43
9,CC(C)CC(C(=O)N1CCOCC1)N1Cc2ccccc2C1=O (stereo not shown),29.3
10,COC(=O)CC1COc2ccccc2N1C(=O)/C=C/c1ccccc1 (stereo not shown),-13.8
11,COc1ccc(CNC(=O)c2ccc(Cn3nc(C)c([N+](=O)[O-])c3C)o2)cc1,-33.9
12,Nc1ccccc1C(=O)NC1CCCNC1=O (stereo not shown),2.4
13,O=C(NCCCN1CCN(CCCNC(=O)c2ccc(F)cc2)CC1)c1ccc(F)cc1,-51.1
14,CC12CCC(=O)N1C(C(=O)NNC(=O)c1ccc(Cl)cc1)CS2 (stereo not shown),-4.46
15,Cc1cc(C)c(S(=O)(=O)Nc2cccc(C(=O)O)c2)cc1S(=O)(=O)Nc1cccc(C(=O)O)c1,18.2
16,CCC(CC)c1nnc(NC(=O)CS(=O)(=O)c2ccc(C)cc2)s1,22.8
17,Cc1cc(OC(=O)c2ccccc2Cl)cc(=O)n1C,-29.8
18,O=C(NC1CCCc2ccccc21)c1ccccc1OC(F)F (stereo not shown),-9.69
